The source gives no read counts; variants with many changes may rest on few reads.
B1: LINE1-full (parent)
chain: UACGUAGGUGGUUUUCCCCUGAUAGUGCUAAGGGGGCCUGGAAGUUUGGACUGGGCAGAGCUCAACACAGCGUGGCAAAGUGGCUGUGGCUAGACUGCCUCUCUGGAUUCCUCGUCACUCAGCAGGGCAUCUCUGAGAGAAAUGCC

Variants of: B1
Assay: self-cleavage, relative activity (ratio to wild type); higher = more cleavage; in vitro, sequencing; the parent is a self-cleaving ribozyme

Row | Variant | self-cleavage
1 | U29C A77U U96A C103U | 0.04
2 | C37A A43G U52A U62C U115C A129G | 0
3 | U12G A69U A79U A136U | 0.19
4 | U47A G53U A64G C128U | 0.07
5 | A24U A42U A77G G82A C103A U132C A142G | 0
6 | U46C U62C A65G A69G A117U | 0
7 | A42G U45G A69U U109C A129G A140U | 0
8 | U26G G40A A59G G72A C111U U115C | 0.05
9 | U20A U45A G74A U132C | 0.8
10 | A43G U45G U73A | 1.25
11 | C63U A64G C68U A140G | 0.03
12 | U1C U115C U143A | 0.96
13 | U1A G7A U62C | 0.1
14 | U14C U87C U134A | 0
15 | U1C U14C A59G U73C A141G | 0.36
16 | U52A U96C G125C | 0.15
17 | U15C U100C A138G | 1.56
18 | U14C U39C C99U A141G | 0.65
19 | U15A G35U U100C | 1.33
20 | U73A U108C A140U | 2.19
21 | C63A A64G U87A U100C G127A | 0.02
22 | U39A G44U U47C U73C G114C A141G | 2.07
23 | A31U C68U U108C U112C | 0
24 | A24U U47C U87C | 0

Row | Variant | self-cleavage
25 | A2G G8C A124G A140G | 0.53
26 | U1G A22G A42G G48A A57G | 0.66
27 | U15C U134A A140G | 0.64
28 | G11A C17U U29A A64U A92G | 0.05
29 | U5C U13A G35U | 1.15
30 | A50G A64G A69G | 0
31 | U20A U52G A57G A78U U91A U104C | 1.06
32 | A2G U29C U100C C110U A136G | 1.15
33 | U29C G58U U81G | 0.07
34 | U23C A64G U109C U119C | 0.32
35 | G58U A121U C133A | 0.05
36 | A67G C113U U119C | 0.23
37 | A30C A57U A65G A67U U104C | 0
38 | U14C A50G A94U U119C A140G | 1.2
39 | U9C U20C U100A U130C | 1.62
40 | A43G A69U G144A | 0.12
41 | U23G A31G U85C A94G C113A A142G | 0.74
42 | A42G A67G U85A | 0.12
43 | U45C U73A U109C | 1.28
44 | U20C A64G U73A | 0.4
45 | A67G G106A G114U | 0.51
46 | A6G U96C U100C | 0
47 | U12A G75U A121U A141G U143C | 1.65
48 | G33C U39A U119A C146A | 0.51

Row | Variant | self-cleavage
49 | U47A U130C A142G | 2.04
50 | U5A U14C C56U U100C U104C | 0
51 | U15A A59U G82A | 0.85
52 | A30G C37A A57G G126A A138G | 1.07
53 | G105A A129G A142G | 1.88
54 | U46C A57U G144A | 0.14
55 | C19U U39G A65G | 0.8
56 | A22U G72U U119C G137U | 1.22
57 | U20C U45A A50G A142G | 0.84
58 | U13C U15C G72A | 1.48
59 | C37A U39C A64U U73A U119A U134C | 0.39
60 | G7A U29C U85C A140G | 0.11
61 | U39C U102A G106A A124U | 1.65
62 | A22U A65U A77G | 0.27
63 | U5C G32C U132C | 0.84
64 | U20C G33C A64U U87C U132C | 0
65 | U47A A78G U109C A124G | 0.66
66 | U13A U85C U96C | 0.28
67 | U5C U85A U96C A121U A140G | 0.23
68 | A2G G10A A43C C63U C113U | 0.12
69 | U9A U102C U109A A138G | 1.45
70 | U47G A136U U143C | 1.21
71 | G35A U85A U87A | 0.06
72 | U87C U96C A138G | 0.14

Row | Variant | self-cleavage
73 | U47A A77G U100C | 2.35
74 | U85C A94G U108C | 0
75 | U15A A31G U52A U96A | 0.22
76 | G41U U73A U102C U115A | 1.33
77 | U13C A50U C95A U109C | 0.11
78 | G8A U100C U134C | 1.51
79 | U13C A69U U130C | 0
80 | G11A A24G U104A U112C A138G | 0.88
81 | U29C A136U A140G | 1.31
82 | U14C G36A U73C | 1.15
83 | A6G U81A U134C | 1.16
84 | U9C A42G A141G | 1.37
85 | A42G G89A A140U | 0.08
86 | U13C U87A U104C | 0.18
87 | G40A U52A A59G A138G | 0.06
88 | U62A A67G A121G U130A A141G | 0
89 | U20A A22G U52C A129U | 1.17
90 | U52A U85C U96C | 0.18
91 | U13G A65U C99U C101A | 0.2
92 | G34A A121G A129G | 1.67
93 | U29C C63U A67U A92G A107U | 0.06
94 | U9C U12A U47C G72A U87G A141G | 0.61
95 | U26C A64U A94G U112C | 0.08
96 | U46C U109A G137U | 1.02

Row | Variant | self-cleavage
97 | U12C G33U A92G U143C | 0.2
98 | C16U U62C C71U A79G | 0.07
99 | U20G U134C A142G | 0.62
100 | U52A A64G U115A | 0.12
101 | U52A U102C U143C | 0.79
102 | U12G A22G A136C | 0.88
103 | U26C G82U A138U | 1.65
104 | A6G U45A U104C | 0
105 | G36U C76U A79G G93A A121G | 0.04
106 | G72U C111U U112C | 1.34
107 | U5A A78G G105A U115C | 1.52
108 | A2G A107U A129G | 2.92
109 | U20C U73A A129G | 1.99
110 | U12C U14C A136U | 0.56
111 | U12A U20G C37U | 0.78
112 | A57G U62C A140G | 0.13
113 | U52A U73C U100C | 1.45
114 | U12C A69G A78G | 0
115 | U20A U62A U112C A138U | 0.02
116 | U46C U102C A138G | 1.75
117 | A107U U115C A117C | 1.84
118 | G4U C68U A107G | 0.32
119 | U1A U26C U39A | 1.45
120 | U12C A22U U73A | 1.8

Row | Variant | self-cleavage
121 | U23C U29C G48A U143A | 0.8
122 | U15A G58U U104C U119C | 0.09
123 | U9A U14C A79U U112C G114A | 1.77
124 | A50G A64U U119A | 0.61
125 | U26G U29A U46C A65G U104C G127A U134C | 0
126 | A43G G53A U100C U108C A117C U134C | 2.3
127 | U39C C56U A65G U85A A124G U132C | 0
128 | G36A A59G A117G | 0.06
129 | U87C A124U U134C A136U | 0.24
130 | A79G U130C A136U A142G | 1.59
131 | C19A U85A U119C | 0.19
132 | G127C A129U U130C | 0.28
133 | A43U A78G A124G | 0.6
134 | C37A U85A G126A | 0.06
135 | U13C A24U U143C | 1.17
136 | A57C U87A U100C U143A | 0
137 | U5A A59U C90U | 0.01
138 | U12C U15C C98U | 0.77
139 | U15C U52C U96C | 0
140 | A50G G60A U62A U132A A138G | 0.06
141 | A50G A78U A79G | 2.35
142 | U13C A64G A69U U73C G135A | 0
143 | A24G A107G G144A | 2.14
144 | A77G U87C U134A | 0

Row | Variant | self-cleavage
145 | A24G U52C U91C | 0.46
146 | G36C U46A U52C U91C A136G | 1.31
147 | U62C A69U U130C | 0.01
148 | U15A U46C A138U | 2
149 | U46C A69G U134A A140U | 0.5
150 | U46C U130C A140G A142U | 1.53
151 | U29C C56A U62A A121C | 0.06
152 | U23C A42G A50U A107G C128A | 0.14
153 | U14C A57U U81A C128U | 0.1
154 | A64G A77G A117G | 0.35
155 | U52A A67U A78G | 0.08
156 | U45C A67G A78G A94U | 0
157 | U12G C19U A79G G82A G86A | 0.24
158 | A79G U85C U108C | 0
159 | A57G G88U A94G U115A U143C | 0.03
160 | U14A U39A A78G | 0.76
161 | A65G A77G U87A U119G | 0
162 | U13C A43G A117U A121U A142G | 0.57
163 | A2G U45C A57G G139A | 0.19
164 | A67G C68U U91C U130C | 0.02
165 | G4A U62C A65G U132C A138G | 0.28
166 | U15C A107G U115A | 1.46
167 | A65C U81A U108C | 0.04

Source: the RNAGym collection of RNA variant scans (doi:10.7554/elife.90254)
